Data on 5 molecules can be found in US12692305 (REVERB THERAPEUTICS, dated 2026).

The target in assay [1] is T1, human IL-15 (human, UniProt P40933 in part).
T1 construct: also called Premium grade IL-15; GMP grade human IL-15
The assay can be described thus: SPR, variant (additional production) captured on anti-human Fc, IL-15 analyte, single-cycle kinetics, 1:1 fit.

Assay [2] has as its target T1, human IL-15. The assay can be described thus: SPR, variant captured on anti-human Fc, IL-15 analyte, single-cycle kinetics, 1:1 fit. On the procedure:
(§1) EDC: 1-ethyl-3-(3-dimethylaminopropyl) carbodiimide hydrochloride; NHS: N-Hydroxysuccinimide; SPR: surface plasmon resonance; EDTA: ethylenediaminetetraacetic acid SPR Supplies Series S Sensor Chip CM5, Biacore amine coupling kit (NHS, EDC and 1 M ethanolamine), and 10 mM sodium acetate buffers were purchased from Cytiva Life Sciences (Marlborough, MA). […] PBS running buffer with 1% Tween20 (PBST) was purchased from Teknova Inc. (Hollister, Calif.). Goat polyclonal anti-human Fc antibody was purchased from Jackson Immuno Research Laboratories Inc. (West Grove, Pa.). EDTA was purchased from Bioshop (Burlington, ON). All SPR assays were carried out using a Biacore T200 Surface Plasmon Resonance instrument (Cytiva Life Sciences, (Marlborough, MA)) with PBST running buffer (with 0.5 M EDTA stock solution added to 3.4 mM final concentration) at a temperature of 25° C. The anti-human Fc capture surface was generated using a Series S Sensor Chip CM5 using the default parameters under the Immobilization Wizard in the Biacore T200 control software which was set to target 3000 resonance units (RUs).
The first flow cell was left empty to use as a blank control. […] The captured antibody surfaces were regenerated twice by 10 mM Glycine pH1.5 for 30 seconds at 30 μL/min. Buffer injections were performed for each analyte injection to be used for referencing.

In assay [3] the target is T1, human IL-15. The assay can be described thus: SPR, variant captured on immobilised PD1, IL-15 analyte, single-cycle kinetics, 1:1 fit.
T1 sequence (P40933 49-162 limits assumed): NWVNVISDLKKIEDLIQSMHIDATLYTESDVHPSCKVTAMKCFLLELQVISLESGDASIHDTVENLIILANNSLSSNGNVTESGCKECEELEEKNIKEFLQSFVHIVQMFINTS
Assay [4] addresses T1, human IL-15. The assay is described as follows: SPR, variant (additional production) captured on immobilised PD1, IL-15 analyte, single-cycle kinetics, 1:1 fit. On the technique in general: SPR reads the build-up and loss of mass on a sensor chip optically.
Assay [5] concerns the target T2, human PD-1 (human, UniProt Q15116 in part, limits assumed).
T2 construct: Recombinant protein used in SPR as analyte or amine-coupled ligand; also called PD1 antigen
The assay can be described thus: SPR, variant captured on protein A, PD1 analyte (impaired accessibility on chip noted). On the procedure:
as §1, with “The anti-human Fc capture surface was generated using a Series S Sensor Chip CM5 using the default parameters under the Immobilization Wizard in the Biacore T200 control software which was set to target 3000 resonance units (RUs).” left out
The first flow cell was left empty to use as a blank control. […] Buffer injections were performed for each analyte injection to be used for referencing.

Assay [6] addresses T2, human PD-1. The assay can be described thus: SPR, variant as analyte over immobilised PD1 (avidity possible).

T2 sequence (Q15116 25-167 limits assumed): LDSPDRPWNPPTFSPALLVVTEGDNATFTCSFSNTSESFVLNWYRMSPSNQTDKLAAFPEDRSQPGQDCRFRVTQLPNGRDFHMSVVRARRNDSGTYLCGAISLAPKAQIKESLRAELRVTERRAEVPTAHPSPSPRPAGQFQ

B1: RV30 (bispecific antibody, human IgG1, lambda)
heavy: QVQLVQSGVEVKKPGASVKVSCKASGYTFTNYYMYWVRQAPGQGLEWMGGINPSNGGTNFNEKFKNRVTLTTDSSTTTAYMELKSLQFDDTAVYYCARRDYRFDMGFDYWGQGTTVTVSSGGGGSGGGGSQVQLVQSGAEVKKPGASVKVSCKASGYSFSSFGISWVRQAPGQGLEWLGWISAFNGYTKYAQKFQDRVTMTTDTSTSTAYMELRSLRSDDTAVYYCARDPAAWPLQQSLAWFDPWGQGTMVTVSSASTKGPSVFPLAPSSKSTSGGTAALGCLVKDYFPEPVTVSWNSGALTSGVHTFPAVLQSSGLYSLSSVVTVPSSSLGTQTYICNVNHKPSNTKVDKKV[sequence of human IgG1 Fc with changes not given]
light: EIVLTQSPATLSLSPGERATLSCRASKGVSTSGYSYLHWYQQKPGQAPRLLIYLASYLESGVPARFSGSGSGTDFTLTISSLEPEDFAVYYCQHSRDLPLTFGGGTKVEIKGGGGSGGGGSQSVLTQPPSASGTPGQRVTISCSGSTSNLKRNYVYWYQQLPGTAPKLLIYRDRRRPSGVPDRFSGSKSGTSASLAISGLRSEDEADYYCAWYDRELSEWVFGGGTKLTVLQPKAAPSVTLFPPSSEELQANKATLVCLISDFYPGAVTVAWKADSSPVKAGVETTTPSKQSNNKYAASSYLSLTPEQWKSHRSYSCQVTHEGSTVEKTVAPTECS
notes: Dual variable domain format, IgG1 LALAPG; Two productions tested: RV30 (88.2 % main peak) and RV30* (97.4 %); also called RV30* (additional production)
As for B1, the Kd is 0.0664 nM with human IL-15 [1], 0.077 nM with human IL-15 [2], 0.452 nM with human IL-15 [3] and 0.85 nM in the assay with human IL-15 [4].

B2: RV37 (bispecific antibody, human IgG1, lambda)
heavy: QVQLVQSGVEVKKPGASVKVSCKASGYTFTNYYMYWVRQAPGQGLEWMGGINPSNGGTNFNEKFKNRVTLTTDSSTTTAYMELKSLQFDDTAVYYCARRDYRFDMGFDYWGQGTTVTVSSGGGGSGGGGSGGGGSGGGGSQVQLVQSGAEVKKPGASVKVSCKASGYSFSSFGISWVRQAPGQGLEWLGWISAFNGYTKYAQKFQDRVTMTTDTSTSTAYMELRSLRSDDTAVYYCARDPAAWPLQQSLAWFDPWGQGTMVTVSSASTKGPSVFPLAPSSKSTSGGTAALGCLVKDYFPEPVTVSWNSGALTSGVHTFPAVLQSSGLYSLSSVVTVPSSSLGTQTYICNVNHKPSNTKVDKKV[sequence of human IgG1 Fc with changes not given]
light: EIVLTQSPATLSLSPGERATLSCRASKGVSTSGYSYLHWYQQKPGQAPRLLIYLASYLESGVPARFSGSGSGTDFTLTISSLEPEDFAVYYCQHSRDLPLTFGGGTKVEIKGGGGSGGGGSGGGGSGGGGSQSVLTQPPSASGTPGQRVTISCSGSTSNLKRNYVYWYQQLPGTAPKLLIYRDRRRPSGVPDRFSGSKSGTSASLAISGLRSEDEADYYCAWYDRELSEWVFGGGTKLTVLQPKAAPSVTLFPPSSEELQANKATLVCLISDFYPGAVTVAWKADSSPVKAGVETTTPSKQSNNKYAASSYLSLTPEQWKSHRSYSCQVTHEGSTVEKTVAPTECS
notes: Dual variable domain format, IgG1 LALAPG; Purity 71.4 % main peak
Consider B2, for which the Kd was 0.0664 nM with human IL-15 [2] and 0.227 nM with human IL-15 [3].

B3: RV17 (bispecific antibody, human IgG1, lambda)
heavy: QVQLVQSGAEVKKPGASVKVSCKASGYSFSSFGISWVRQAPGQGLEWLGWISAFNGYTKYAQKFQDRVTMTTDTSTSTAYMELRSLRSDDTAVYYCARDPAAWPLQQSLAWFDPWGQGTMVTVSSASTKGPSVFPLAPSSKSTSGGTAALGCLVKDYFPEPVTVSWNSGALTSGVHTFPAVLQSSGLYSLSSVVTVPSSSLGTQTYICNVNHKPSNTKVDKKV[sequence of human IgG1 Fc with changes not given]GGGGSGGGGSGGGGSGGGGSQVQLVQSGVEVKKPGASVKVSCKASGYTFTNYYMYWVRQAPGQGLEWMGGINPSNGGTNFNEKFKNRVTLTTDSSTTTAYMELKSLQFDDTAVYYCARRDYRFDMGFDYWGQGTTVTVSSGGSGGGSGGGSGGGSGGGSGEIVLTQSPATLSLSPGERATLSCRASKGVSTSGYSYLHWYQQKPGQAPRLLIYLASYLESGVPARFSGSGSGTDFTLTISSLEPEDFAVYYCQHSRDLPLTFGGGTKVEI
light: QSVLTQPPSASGTPGQRVTISCSGSTSNLKRNYVYWYQQLPGTAPKLLIYRDRRRPSGVPDRFSGSKSGTSASLAISGLRSEDEADYYCAWYDRELSEWVFGGGTKLTVLQPKAAPSVTLFPPSSEELQANKATLVCLISDFYPGAVTVAWKADSSPVKAGVETTTPSKQSNNKYAASSYLSLTPEQWKSHRSYSCQVTHEGSTVEKTVAPTECS
notes: Purity 66.9 % main peak
Molecule B3 displayed a Kd in the assay with human IL-15 [2] of 0.106 nM.

B4: RV18 (bispecific antibody, human IgG1, lambda)
heavy: QVQLVQSGAEVKKPGASVKVSCKASGYSFSSFGISWVRQAPGQGLEWLGWISAFNGYTKYAQKFQDRVTMTTDTSTSTAYMELRSLRSDDTAVYYCARDPAAWPLQQSLAWFDPWGQGTMVTVSSASTKGPSVFPLAPSSKSTSGGTAALGCLVKDYFPEPVTVSWNSGALTSGVHTFPAVLQSSGLYSLSSVVTVPSSSLGTQTYICNVNHKPSNTKVDKKV[sequence of human IgG1 Fc with changes not given]GGGGSGGGGSGGGGSGGGGSEIVLTQSPATLSLSPGERATLSCRASKGVSTSGYSYLHWYQQKPGQAPRLLIYLASYLESGVPARFSGSGSGTDFTLTISSLEPEDFAVYYCQHSRDLPLTFGGGTKVEIKGGSGGGSGGGSGGGSGGGSGQVQLVQSGVEVKKPGASVKVSCKASGYTFTNYYMYWVRQAPGQGLEWMGGINPSNGGTNFNEKFKNRVTLTTDSSTTTAYMELKSLQFDDTAVYYCARRDYRFDMGFDYWGQGTTVTVSS
light: QSVLTQPPSASGTPGQRVTISCSGSTSNLKRNYVYWYQQLPGTAPKLLIYRDRRRPSGVPDRFSGSKSGTSASLAISGLRSEDEADYYCAWYDRELSEWVFGGGTKLTVLQPKAAPSVTLFPPSSEELQANKATLVCLISDFYPGAVTVAWKADSSPVKAGVETTTPSKQSNNKYAASSYLSLTPEQWKSHRSYSCQVTHEGSTVEKTVAPTECS
notes: IgG1 LALAPG anti-IL-15 antibody with anti-PD1 scFv fused to the heavy chain C terminus; Purity 20.8 % main peak
With B4, the Kd in the assay with human IL-15 [2] came out at 0.0769 nM; in the assay with human PD-1 [5], 13 nM; with human PD-1 [6], 0.215 nM.

B5: RV19 (bispecific antibody, human IgG1, lambda)
heavy: QVQLVQSGAEVKKPGASVKVSCKASGYSFSSFGISWVRQAPGQGLEWLGWISAFNGYTKYAQKFQDRVTMTTDTSTSTAYMELRSLRSDDTAVYYCARDPAAWPLQQSLAWFDPWGQGTMVTVSSASTKGPSVFPLAPSSKSTSGGTAALGCLVKDYFPEPVTVSWNSGALTSGVHTFPAVLQSSGLYSLSSVVTVPSSSLGTQTYICNVNHKPSNTKVDKKV[sequence of human IgG1 Fc with changes not given]GGGGSGGGGSGGGGSGGGGSQVQLVQSGVEVKKPGASVKVSCKASGYTFTNYYMYWVRQAPGQCLEWMGGINPSNGGTNFNEKFKNRVTLTTDSSTTTAYMELKSLQFDDTAVYYCARRDYRFDMGFDYWGQGTTVTVSSGGSGGGSGGGSGGGSGGGSGEIVLTQSPATLSLSPGERATLSCRASKGVSTSGYSYLHWYQQKPGQAPRLLIYLASYLESGVPARFSGSGSGTDFTLTISSLEPEDFAVYYCQHSRDLPLTFGCGTKVEI
light: QSVLTQPPSASGTPGQRVTISCSGSTSNLKRNYVYWYQQLPGTAPKLLIYRDRRRPSGVPDRFSGSKSGTSASLAISGLRSEDEADYYCAWYDRELSEWVFGGGTKLTVLQPKAAPSVTLFPPSSEELQANKATLVCLISDFYPGAVTVAWKADSSPVKAGVETTTPSKQSNNKYAASSYLSLTPEQWKSHRSYSCQVTHEGSTVEKTVAPTECS
notes: Purity 85.6 % main peak
As for B5, the Kd with human IL-15 [2] is 0.0847 nM.
